Target: Her2 (recombinant Her2 antigen, Example 4) (human, UniProt P04626 part only, limits assumed)
Assay: SPR ProteOn, Her2 on chip; pH 7.4 t0 dup2

Kd: 0.0946 nM
B1: Trastuzumab variant VH:D98E/VL:N30S (antibody, V domains shown)
VH: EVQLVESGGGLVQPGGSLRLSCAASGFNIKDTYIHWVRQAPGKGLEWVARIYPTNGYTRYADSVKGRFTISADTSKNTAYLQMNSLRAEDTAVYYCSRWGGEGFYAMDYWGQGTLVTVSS
VL: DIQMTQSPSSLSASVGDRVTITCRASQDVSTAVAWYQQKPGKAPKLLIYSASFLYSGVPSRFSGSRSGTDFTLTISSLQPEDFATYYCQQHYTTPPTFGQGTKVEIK
